The supplement of paper PMC8728848
Some of the results follow.

Assays:
Experiment in all cases: glycan array binding signal (z-score within array); higher = stronger binding
Conditions in all cases: glycan notation: IUPAC condensed, linker removed
[1] = biological target: Neu5Ac(a2-6)Gal(b1-3)GlcNAc(b1-3)[Fuc(a1-3)[Gal(b1-4)]GlcNAc(b1-6)]Gal(b1-4)Glc
Method in brief: (§1)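 Glycan array data were curated from 3228 arrays in the Consortium for Functional Glycomics database and kept only where the protein sequence was available. Glycan names were converted to IUPAC-condensed notation, and columns mapping to the same glycan were averaged. The binding signal is a within-array Z-score, averaged across arrays of the same protein sequence at different concentrations or buffers and across linkers. Negative Z-scores can be read as non-binding.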

[2] = biological target: Neu5Ac(a2-6)Gal(b1-3)GlcNAc(b1-3)[Gal(b1-4)GlcNAc(b1-6)]Gal(b1-4)Glc
Method in brief: as §1

Neu5Ac(a2-6)Gal(b1-4)Glc = biological target: Neu5Ac(a2-6)Gal(b1-4)Glc
Method in brief: as §1

[3] = biological target: Neu5Ac(a2-6)Gal(b1-4)GlcNAc
Method in brief: as §1

[4] = biological target: Neu5Ac(a2-6)Gal(b1-4)GlcNAc(b1-2)Man(a1-3)[Neu5Ac(a2-6)Gal(b1-4)GlcNAc(b1-2)Man(a1-6)]Man(b1-4)GlcNAc(b1-4)GlcNAc
Method in brief: as §1

[5] = biological target: Neu5Ac(a2-6)Gal(b1-4)GlcNAc(b1-2)Man(a1-3)[Neu5Gc(a2-6)Gal(b1-4)GlcNAc(b1-2)Man(a1-6)]Man(b1-4)GlcNAc(b1-4)GlcNAc
Method in brief: as §1

[6] = biological target: Neu5Ac(a2-6)Gal(b1-4)GlcNAc(b1-2)[Neu5Ac(a2-3)Gal(b1-4)GlcNAc(b1-4)]Man(a1-3)[Neu5Ac(a2-3)Gal(b1-4)GlcNAc(b1-2)Man(a1-6)]Man(b1-4)GlcNAc(b1-4)GlcNAc
Method in brief: as §1

[7] = biological target: Neu5Ac(a2-6)Gal(b1-4)GlcNAc(b1-3)Gal(b1-4)Glc
Method in brief: as §1

[8] = biological target: Neu5Ac(a2-6)Gal(b1-4)GlcNAc(b1-3)Gal(b1-4)[Fuc(a1-3)]Glc
Method in brief: as §1

[9] = biological target: Neu5Ac(a2-6)Gal(b1-4)GlcNAc(b1-3)[Neu5Ac(a2-6)Gal(b1-4)GlcNAc(b1-6)]Gal(b1-4)Glc
Method in brief: as §1

[10] = biological target: Neu5Ac(a2-6)Gal(b1-4)GlcNAc(b1-6)[Gal(b1-3)GlcNAc(b1-3)]Gal(b1-4)Glc
Method in brief: as §1

[11] = biological target: Neu5Ac(a2-6)Gal(b1-4)[Fuc(a1-3)]GlcNAc(b1-3)Gal(b1-4)Glc
Method in brief: as §1

Neu5Ac(a2-8)Neu5Ac = biological target: Neu5Ac(a2-8)Neu5Ac
Method in brief: as §1

[12] = biological target: Neu5Ac(a2-8)Neu5Ac(a2-3)Gal(b1-3)GalNAc(b1-4)[Neu5Ac(a2-3)]Gal(b1-4)Glc
Method in brief: as §1

[13] = biological target: Neu5Ac(a2-8)Neu5Ac(a2-3)Gal(b1-3)GalNAc(b1-4)[Neu5Ac(a2-8)Neu5Ac(a2-3)]Gal(b1-4)Glc
Method in brief: as §1

[14] = biological target: Neu5Ac(a2-8)Neu5Ac(a2-3)Gal(b1-4)Glc
Method in brief: as §1

[15] = biological target: Neu5Ac(a2-8)Neu5Ac(a2-3)[Gal(b1-3)GalNAc(b1-4)]Gal(b1-4)Glc
Method in brief: as §1

[16] = biological target: Neu5Ac(a2-8)Neu5Ac(a2-3)[GalNAc(b1-4)]Gal(b1-4)Glc
Method in brief: as §1

[17] = biological target: Neu5Ac(a2-8)Neu5Ac(a2-8)Neu5Ac
Method in brief: as §1

[18] = biological target: Neu5Ac(a2-8)Neu5Ac(a2-8)Neu5Ac(a2-8)Neu5Ac
Method in brief: as §1

[19] = biological target: Neu5Ac(a2-8)Neu5Ac(a2-8)Neu5Ac(a2-8)Neu5Ac(a2-8)Neu5Ac
Method in brief: as §1

[20] = biological target: Neu5Ac(a2-8)Neu5Ac(a2-8)Neu5Ac(a2-8)Neu5Ac(a2-8)Neu5Ac(a2-8)Neu5Ac
Method in brief: as §1

[21] = biological target: Neu5Ac(a2-8)Neu5Ac(a2-8)Neu5Ac(a2-8)Neu5Ac(a2-8)Neu5Ac(a2-8)Neu5Ac(a2-8)Neu5Ac
Method in brief: as §1

[22] = biological target: Neu5Ac(a2-8)Neu5Ac(a2-8)Neu5Ac(a2-8)Neu5Ac(a2-8)Neu5Ac(a2-8)Neu5Ac(a2-8)Neu5Ac(a2-8)Neu5Ac
Method in brief: as §1

[23] = biological target: Neu5Ac(a2-8)Neu5Ac(a2-8)Neu5Ac(a2-8)Neu5Ac(a2-8)Neu5Ac(a2-8)Neu5Ac(a2-8)Neu5Ac(a2-8)Neu5Ac(a2-8)Neu5Ac
Method in brief: as §1

[24] = biological target: Neu5Ac(a2-8)Neu5Ac(a2-8)Neu5Ac(a2-8)Neu5Ac(a2-8)Neu5Ac(a2-8)Neu5Ac(a2-8)Neu5Ac(a2-8)Neu5Ac(a2-8)Neu5Ac(a2-8)Neu5Ac
Method in brief: as §1

[25] = biological target: Neu5Ac(a2-8)Neu5Ac(a2-8)Neu5Ac(a2-8)Neu5Ac(a2-8)Neu5Ac(a2-8)Neu5Ac(a2-8)Neu5Ac(a2-8)Neu5Ac(a2-8)Neu5Ac(a2-8)Neu5Ac(a2-8)Neu5Ac
Method in brief: as §1

Neu5Ac(b2-3)Gal(b1-4)Glc = biological target: Neu5Ac(b2-3)Gal(b1-4)Glc
Method in brief: as §1

Neu5Ac(b2-6)Gal(b1-4)Glc = biological target: Neu5Ac(b2-6)Gal(b1-4)Glc
Method in brief: as §1

[26] = biological target: Neu5Ac9Ac(a2-6)Gal(b1-4)GlcNAc
Method in brief: as §1

Neu5Gc(a2-3)Gal(b1-4)Glc = biological target: Neu5Gc(a2-3)Gal(b1-4)Glc
Method in brief: as §1

[27] = biological target: Neu5Gc(a2-3)[GalNAc(b1-4)]Gal
Method in brief: as §1

[28] = biological target: Neu5Gc(a2-6)Gal(b1-4)GlcNAc(b1-2)Man(a1-3)[Neu5Gc(a2-6)Gal(b1-4)GlcNAc(b1-2)Man(a1-6)]Man(b1-4)GlcNAc(b1-4)GlcNAc
Method in brief: as §1

[29] = biological target: Xyl(a1-6)Glc(b1-4)[Xyl(a1-6)]Glc(b1-4)[Xyl(a1-6)]Glc(b1-4)Glc
Method in brief: as §1

[30] = biological target: Xyl(b1-2)[Man(a1-3)][Man(a1-6)]Man(b1-4)GlcNAc(b1-4)GlcNAc
Method in brief: as §1

[31] = biological target: Xyl(b1-2)[Man(a1-3)][Man(a1-6)]Man(b1-4)GlcNAc(b1-4)[Fuc(a1-3)]GlcNAc
Method in brief: as §1

[32] = biological target: Xyl(b1-4)Xyl(b1-4)Xyl(b1-4)Xyl(b1-4)Xyl
Method in brief: as §1

[33] = biological target: Xyl(b1-4)Xyl(b1-4)Xyl(b1-4)Xyl(b1-4)Xyl(b1-4)Xyl
Method in brief: as §1

B1: Dectin-1 (Mus musculus), Q6QLQ4 (protein)
chain: GHNSGRNPEEKDNFLSRNKENHKPTESSLDEKVAPSKASQTTGGFSQPCLPNWIMHGKSCYLFSFSGNSWYGSKRHCSQLGAHLLKIDNSKEFEFIESQTSSHRINAFWIGLSRNQSEGPWFWEDGSAFFPNSFQVRNTAPQESLLHNCVWIHGSEVYNQICNTSSYSICEKEL
Q: For B1, which “glycan array binding signal (z-score)” value [1] is on record?
A: Its value is -0.091.

Q: What about the “glycan array binding signal (z-score)” value [2] of the same binder?
A: Its value is -0.08.

Q: What about the “glycan array binding signal (z-score)” value (Neu5Ac(a2-6)Gal(b1-4)Glc) of the same binder?
A: Its value is -0.079.

Q: What about the “glycan array binding signal (z-score)” value [3] of the same binder?
A: Its value is -0.091.

Q: And the “glycan array binding signal (z-score)” value [4]?
A: The value was -0.091.

Q: And the “glycan array binding signal (z-score)” value [5]?
A: The value was -0.091.

Q: What about the “glycan array binding signal (z-score)” value [6] of the same binder?
A: The value was -0.082.

Q: What about the “glycan array binding signal (z-score)” value [7] of the same binder?
A: The value was -0.08.

Q: And the “glycan array binding signal (z-score)” value [8]?
A: The value was -0.091.

Q: And the “glycan array binding signal (z-score)” value [9]?
A: Its value is -0.091.

Q: And the “glycan array binding signal (z-score)” value [10]?
A: The value was -0.08.

Q: And the “glycan array binding signal (z-score)” value [11]?
A: The value was -0.08.

Q: And the “glycan array binding signal (z-score)” value (Neu5Ac(a2-8)Neu5Ac)?
A: The value was -0.028.

Q: And the “glycan array binding signal (z-score)” value [12]?
A: The value was -0.091.

Q: What about the “glycan array binding signal (z-score)” value [13] of the same binder?
A: Its value is -0.091.

Q: What about the “glycan array binding signal (z-score)” value [14] of the same binder?
A: The value was -0.091.

Q: And the “glycan array binding signal (z-score)” value [15]?
A: Its value is -0.091.

Q: And the “glycan array binding signal (z-score)” value [16]?
A: Its value is -0.091.

Q: And the “glycan array binding signal (z-score)” value [17]?
A: Its value is -0.038.

Q: What about the “glycan array binding signal (z-score)” value [18] of the same binder?
A: Its value is -0.029.

Q: What about the “glycan array binding signal (z-score)” value [19] of the same binder?
A: Its value is -0.085.

Q: And the “glycan array binding signal (z-score)” value [20]?
A: The value was -0.091.

Q: And the “glycan array binding signal (z-score)” value [21]?
A: The value was -0.075.

Q: And the “glycan array binding signal (z-score)” value [22]?
A: Its value is -0.083.

Q: What about the “glycan array binding signal (z-score)” value [23] of the same binder?
A: The value was -0.046.

Q: And the “glycan array binding signal (z-score)” value [24]?
A: The value was -0.067.

Q: And the “glycan array binding signal (z-score)” value [25]?
A: The value was -0.005.

Q: What about the “glycan array binding signal (z-score)” value (Neu5Ac(b2-3)Gal(b1-4)Glc) of the same binder?
A: The value was -0.091.

Q: What about the “glycan array binding signal (z-score)” value (Neu5Ac(b2-6)Gal(b1-4)Glc) of the same binder?
A: The value was -0.091.

Q: What about the “glycan array binding signal (z-score)” value [26] of the same binder?
A: Its value is -0.067.

Q: And the “glycan array binding signal (z-score)” value (Neu5Gc(a2-3)Gal(b1-4)Glc)?
A: The value was -0.091.

Q: What about the “glycan array binding signal (z-score)” value [27] of the same binder?
A: The value was -0.011.

Q: And the “glycan array binding signal (z-score)” value [28]?
A: The value was -0.091.

Q: And the “glycan array binding signal (z-score)” value [29]?
A: The value was -0.053.

Q: What about the “glycan array binding signal (z-score)” value [30] of the same binder?
A: Its value is -0.091.

Q: And the “glycan array binding signal (z-score)” value [31]?
A: The value was -0.089.

Q: What about the “glycan array binding signal (z-score)” value [32] of the same binder?
A: Its value is -0.082.

Q: And the “glycan array binding signal (z-score)” value [33]?
A: The value was -0.135.
